Assay results: PubChem BioAssay (Tox21)
Values joined by “and” are separate entries in the source; they are usually repeats but may differ in a detail not shown here. Equal entries are not always repeated. Inconclusive means that the source gave no clear call. Such entries were picked first, then a sample of the others. For some of these results: Potencies beside an inconclusive call are fits to weak or partial responses and may not hold up. More than one record can exist for a structure, and the calls need not agree. Active and inactive are the calls of the source. Unless noted, the call rests on the fitted dose curve; in most records, active means well fitted curve in the direction sought with a large enough effect in the repeat runs; inconclusive means weak or mixed curves; inactive means no such curve, though single readings can be large; an effect the other way counts as inactive or inconclusive.

Columns and labels:
[1] = biological target: Estrogen receptor beta (Homo sapiens) (UniProt Q92731); experiment: qHTS assay to identify small molecule antagonists of the estrogen receptor beta (ER-beta) signaling pathway (AID 1259378; active means well fitted inhibition curve with a large enough effect in the signal ratio in the repeat runs, not every such curve was filed as active; inconclusive means weak or mixed curves, or effect the other way; inactive means no such curve, though single readings can be large or run the other way; the % refers to the signal ratio; further: on the % scale 0 is the no-effect control and ±100 the full control effect); settings: ER-beta-UAS-bla HEK293T, beta-lactamase FRET ratio, 16 h; activity, negative = inhibition: at 92.4 µM (top of the series) unless noted
UniProt Q92731, sequence (Q92731 whole entry, looked up): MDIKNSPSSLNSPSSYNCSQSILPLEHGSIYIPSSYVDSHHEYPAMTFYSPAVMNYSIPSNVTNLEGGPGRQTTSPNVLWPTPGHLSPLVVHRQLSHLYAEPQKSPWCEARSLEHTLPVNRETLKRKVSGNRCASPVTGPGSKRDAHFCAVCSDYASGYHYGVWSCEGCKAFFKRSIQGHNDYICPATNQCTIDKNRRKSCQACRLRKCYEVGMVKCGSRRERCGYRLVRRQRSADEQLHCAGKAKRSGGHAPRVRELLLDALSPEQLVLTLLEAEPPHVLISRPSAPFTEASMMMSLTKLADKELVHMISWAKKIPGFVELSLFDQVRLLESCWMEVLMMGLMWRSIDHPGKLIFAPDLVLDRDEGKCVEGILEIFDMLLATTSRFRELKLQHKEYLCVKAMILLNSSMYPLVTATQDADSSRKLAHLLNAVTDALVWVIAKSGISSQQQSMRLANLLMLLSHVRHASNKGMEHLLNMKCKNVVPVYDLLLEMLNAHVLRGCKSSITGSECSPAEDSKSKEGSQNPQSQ
Outline: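 ER-beta-UAS-bla HEK293T cells in 2% charcoal-stripped FBS medium treated with compound plus 1nM final 17-beta-estradiol for 16 hr at 37C. Beta-lactamase reporter read by FRET substrate fluorescence after 2 hours at room temperature.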

[2] = qHTS assay to identify small molecule agonists of the TGF-beta/Smad signaling pathway (AID 1346859; active means well fitted activation curve with a large enough effect in the signal ratio in the repeat runs, not every such curve was filed as active; inconclusive means weak or mixed curves; the % refers to the signal ratio; further: potency means the concentration at half of the fitted maximal effect; on activation: on the % scale 0 is the no-effect control and ±100 the full control effect); settings: SBE-bla HEK293T, TGF-beta/Smad beta-lactamase reporter, 5 h; activation: at 76.8 µM (top of the series) unless noted
Outline: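 Stable Smad binding element-beta-lactamase HEK 293T cells; 5 hr compound exposure at 37 C under 5% CO2; 2 hr room-temperature substrate step; fluorescence excited at 405 nm, collected at 460 nm and 530 nm.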

[3] = qHTS assay to identify small molecule antagonists of the TGF-beta/Smad signaling pathway (AID 1346924; active means well fitted inhibition curve with a large enough effect in the signal ratio in the repeat runs, not every such curve was filed as active; inconclusive means weak or mixed curves; the % refers to the signal ratio; further: potency means the concentration at half of the fitted maximal effect); settings: SBE-bla HEK293T, TGF-beta/Smad reporter, beta-lactamase ratio
Outline: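 SBE-bla HEK 293T cells were plated overnight, then received compound in DMSO plus TGF-beta1 (added as a 0.25 ng/mL solution) and were incubated 5 h at 37 C. Beta-lactamase reporter activity was read after 2 h at room temperature with LiveBLAzer B/G FRET substrate (ex 405, em 460/530 nm).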

[4] = qHTS assay to identify small molecule agonists of the progesterone receptor (PR) signaling pathway - cell viability counter screen (AID 1346799; calls by dose curve; further: nearly all actives have a fitted effect of over 45% in size; further: potency means the concentration at half of the fitted maximal effect)
Outline: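 Cytotoxicity in PR-bla HEK293T cells: 16 h compound, 37C; CellTiter-Glo added post-FRET read; luminescence after 30 min RT.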

[5] = qHTS assay to identify small molecule agonists of the TGF-beta/Smad signaling pathway - cell viability counter screen (AID 1346829); further: nearly all actives have a fitted effect of over 45% in size; further: potency means the concentration at half of the fitted maximal effect
Outline: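 After overnight seating at 37 C and 5% CO2, reporter cells got compounds for 5 hr and FRET substrate for 2 hr; cell viability then came from CellTiter-Glo luminescence.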

[6] = qHTS assay to identify small molecule agonists of the androgen receptor (AR) signaling pathway in the presence of an antagonist - cell viability counter screen (AID 1259379); further: nearly all actives have a fitted effect of over 25% in size; further: potency means the concentration at half of the fitted maximal effect
Outline: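 MDA-kb2 human breast carcinoma cells (stable MMTV-luciferase, AR/GR responsive) were seeded 3,000 cells/well, pre-incubated 5 hr at 37C without CO2, then given 3.0uM nilutamide and compounds at 15 concentrations for 16 hr. Viability was read by CellTiter-Fluor fluorescence.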

[7] = qHTS assay to identify small molecule antagonists of the estrogen receptor beta (ER-beta) signaling pathway - cell viability counter screen (AID 1259382); further: nearly all actives have a fitted effect of over 55% in size; further: potency means the concentration at half of the fitted maximal effect
Outline: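 ER-beta-UAS-bla HEK293T cells (2,000/well, 2% charcoal-stripped FBS) were pre-incubated 6 hr at 37C, then given compound plus 1nM final 17-beta-estradiol for 16 hr. Viability was read in the same wells by CellTiter-Glo luminescence after 30 min at room temperature.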

[8] = biological target: Thyrotropin receptor (Homo sapiens) (UniProt P16473); experiment: qHTS assay to identify small molecule antagonists of the thyroid stimulating hormone receptor (TSHR) signaling pathway (AID 1259385; calls by dose curve; further: potency means the concentration at half of the fitted maximal effect; nearly all actives have a fitted effect of over 20% in size); settings: TSHR-HEK293 cAMP HTRF, TSH-stimulated antagonist mode; activity change, negative = inhibition: at 92.4 µM (top of the series) unless noted
UniProt P16473, sequence (P16473 whole entry, looked up): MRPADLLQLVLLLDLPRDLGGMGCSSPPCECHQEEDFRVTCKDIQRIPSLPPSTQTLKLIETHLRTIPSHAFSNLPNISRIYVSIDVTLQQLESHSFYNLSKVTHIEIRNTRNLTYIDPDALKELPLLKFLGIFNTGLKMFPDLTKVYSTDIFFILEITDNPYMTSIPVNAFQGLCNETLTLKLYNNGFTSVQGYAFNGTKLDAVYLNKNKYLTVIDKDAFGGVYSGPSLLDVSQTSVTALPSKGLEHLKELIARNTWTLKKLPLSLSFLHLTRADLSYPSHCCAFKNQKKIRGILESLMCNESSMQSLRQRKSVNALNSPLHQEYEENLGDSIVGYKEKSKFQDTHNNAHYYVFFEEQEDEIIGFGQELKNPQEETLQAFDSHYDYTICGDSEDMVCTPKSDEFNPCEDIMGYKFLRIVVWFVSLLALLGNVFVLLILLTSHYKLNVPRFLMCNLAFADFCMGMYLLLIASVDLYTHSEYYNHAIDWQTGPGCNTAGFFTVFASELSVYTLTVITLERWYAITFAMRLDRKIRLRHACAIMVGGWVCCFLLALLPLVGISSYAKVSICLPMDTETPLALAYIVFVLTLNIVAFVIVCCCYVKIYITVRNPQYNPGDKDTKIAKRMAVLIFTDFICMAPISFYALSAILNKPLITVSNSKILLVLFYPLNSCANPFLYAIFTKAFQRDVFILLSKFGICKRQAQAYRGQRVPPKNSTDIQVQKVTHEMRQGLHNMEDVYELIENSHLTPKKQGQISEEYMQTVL
Outline: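 TSHR-HEK293 cells (800/well) plated 18 h, then compounds with Ro20-1724 and TSH at 1.5 ng/mL final, 30 min at room temperature. cAMP quantified by HTRF (cAMP-d2/anti-cAMP-cryptate, 1 h); 15 concentrations in triplicate.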

[9] = qHTS assay to identify small molecule agonists of the estrogen receptor alpha (ER-alpha) signaling pathway in the presence of an antagonist - cell viability counter screen (AID 1259386);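 further: potency means the concentration at half of the fitted maximal effect; cells exposed to compounds for 22 h at 37 °C before the viability read; nearly all actives have a fitted effect of over 30% in size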
Outline: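 VM7Luc4E2 cells (endogenous full-length ER-alpha, 4×ERE-luciferase) were held 5 days in phenol red-free medium with 10% charcoal-stripped FBS, plated, then given 10.0nM ICI-182,780 and compounds at 15 concentrations for 22hr at 37C; viability read by CellTiter-Fluor fluorescence.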

[10] = biological target: Androgen receptor (Homo sapiens) (UniProt P10275); experiment: qHTS assay to identify small molecule agonists of the androgen receptor (AR) signaling pathway in the presence of an antagonist (AID 1259381; calls by dose curve; further: potency means the concentration at half of the fitted maximal effect; nearly all actives have a fitted effect of over 15% in size)
UniProt P10275, sequence (P10275 whole entry, looked up): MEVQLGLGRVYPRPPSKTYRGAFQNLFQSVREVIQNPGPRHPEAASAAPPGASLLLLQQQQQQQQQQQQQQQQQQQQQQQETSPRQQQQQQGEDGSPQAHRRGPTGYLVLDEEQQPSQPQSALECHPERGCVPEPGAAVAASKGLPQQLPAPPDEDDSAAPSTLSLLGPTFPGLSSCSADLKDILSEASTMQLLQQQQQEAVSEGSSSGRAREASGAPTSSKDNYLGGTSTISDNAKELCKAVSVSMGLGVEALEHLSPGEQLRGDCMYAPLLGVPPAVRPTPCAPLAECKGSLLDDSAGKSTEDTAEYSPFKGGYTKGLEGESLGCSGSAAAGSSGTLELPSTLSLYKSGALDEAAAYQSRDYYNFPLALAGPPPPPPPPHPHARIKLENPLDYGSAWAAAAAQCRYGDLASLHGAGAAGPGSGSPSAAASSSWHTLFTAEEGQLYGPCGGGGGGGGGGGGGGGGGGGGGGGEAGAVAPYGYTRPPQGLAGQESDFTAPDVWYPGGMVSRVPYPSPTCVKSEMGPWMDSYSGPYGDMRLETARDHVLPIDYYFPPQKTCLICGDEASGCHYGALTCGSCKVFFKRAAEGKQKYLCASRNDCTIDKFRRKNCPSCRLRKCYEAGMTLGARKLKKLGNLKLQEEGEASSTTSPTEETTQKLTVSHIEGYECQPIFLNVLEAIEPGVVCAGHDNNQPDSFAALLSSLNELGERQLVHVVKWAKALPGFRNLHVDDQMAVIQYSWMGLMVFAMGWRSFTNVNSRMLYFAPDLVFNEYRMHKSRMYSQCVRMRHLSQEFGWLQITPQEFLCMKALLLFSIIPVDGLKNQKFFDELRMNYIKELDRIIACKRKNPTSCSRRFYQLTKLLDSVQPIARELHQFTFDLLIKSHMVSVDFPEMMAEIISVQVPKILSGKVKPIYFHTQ
Outline: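 MDA-kb2 human breast carcinoma cells carrying an MMTV-luciferase reporter (AR- and GR-responsive) were treated with compounds at 15 concentrations plus 3.0uM final nilutamide for 16hr at 37C without CO2; luminescence was read after ONE-Glo addition.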

[11] = biological target: Progesterone receptor (Homo sapiens) (UniProt P06401); experiment: qHTS assay to identify small molecule agonists of the progesterone receptor (PR) signaling pathway (AID 1346784; calls by dose curve; further: nearly all actives have a fitted effect of over 30% in size; further: potency means the concentration at half of the fitted maximal effect; on activation: on the % scale 0 is the no-effect control and ±100 the full control effect); settings: PR-UAS-bla HEK293T, beta-lactamase FRET ratio, 16 h; activation: at 92.4 µM (top of the series) unless noted
UniProt P06401, sequence (P06401 whole entry, looked up): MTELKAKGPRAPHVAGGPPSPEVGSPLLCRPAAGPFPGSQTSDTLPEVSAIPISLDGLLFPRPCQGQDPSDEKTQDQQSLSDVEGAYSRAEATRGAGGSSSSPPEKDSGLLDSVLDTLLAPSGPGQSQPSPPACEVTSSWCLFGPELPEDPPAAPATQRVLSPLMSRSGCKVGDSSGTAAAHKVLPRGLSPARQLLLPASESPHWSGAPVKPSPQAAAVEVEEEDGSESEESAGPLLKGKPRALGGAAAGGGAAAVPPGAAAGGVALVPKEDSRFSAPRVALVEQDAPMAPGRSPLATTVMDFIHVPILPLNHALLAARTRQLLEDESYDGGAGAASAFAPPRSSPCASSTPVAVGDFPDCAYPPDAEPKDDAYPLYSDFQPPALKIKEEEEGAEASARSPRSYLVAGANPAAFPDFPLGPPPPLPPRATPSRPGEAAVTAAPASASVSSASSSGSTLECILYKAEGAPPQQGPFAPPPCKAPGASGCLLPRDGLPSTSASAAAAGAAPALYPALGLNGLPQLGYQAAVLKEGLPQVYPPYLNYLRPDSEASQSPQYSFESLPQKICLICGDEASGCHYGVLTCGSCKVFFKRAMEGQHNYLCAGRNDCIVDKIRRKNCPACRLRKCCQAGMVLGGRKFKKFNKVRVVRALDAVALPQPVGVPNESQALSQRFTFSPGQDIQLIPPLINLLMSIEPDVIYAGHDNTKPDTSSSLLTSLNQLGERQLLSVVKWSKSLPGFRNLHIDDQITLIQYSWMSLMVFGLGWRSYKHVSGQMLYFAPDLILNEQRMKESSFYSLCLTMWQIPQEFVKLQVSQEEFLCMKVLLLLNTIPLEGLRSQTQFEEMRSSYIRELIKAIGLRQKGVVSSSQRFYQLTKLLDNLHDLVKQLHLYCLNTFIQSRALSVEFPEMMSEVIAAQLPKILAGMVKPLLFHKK
Outline: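 Using charcoal-stripped serum (2%) to limit endogenous steroids, PR-UAS-bla HEK 293T cells received compounds for 16 hr at 37C after 6 hr plating; beta-lactamase FRET fluorescence was recorded following 2 hr substrate loading at room temperature.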

[12] = biological target: Progesterone receptor (Homo sapiens) (UniProt P06401); experiment: qHTS assay to identify small molecule antagonists of the progesterone receptor (PR) signaling pathway (AID 1346795; active means well fitted inhibition curve with a large enough effect in the signal ratio in the repeat runs, not every such curve was filed as active; inconclusive means weak or mixed curves; the % refers to the signal ratio; further: potency means the concentration at half of the fitted maximal effect; on activity change, negative = inhibition: on the % scale 0 is the no-effect control and ±100 the full control effect); settings: PR-UAS-bla HEK293T, beta-lactamase FRET ratio, 16 h; activity change, negative = inhibition: at 92.4 µM (top of the series) unless noted
Outline: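 Inhibition of R5020-induced (1 nM final) beta-lactamase reporter signal in PR-UAS-bla HEK293T cells was scored by FRET fluorescence after overnight (16 hr) compound treatment.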

[13] = qHTS assay to identify small molecule antagonists of the progesterone receptor (PR) signaling pathway - cell viability counter screen (AID 1346798); further: potency means the concentration at half of the fitted maximal effect; nearly all actives have a fitted effect of over 50% in size
Outline: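 ATP content as viability readout: CellTiter-Glo luminescence, 30 min room temperature, in PR-UAS-bla HEK293T cells after 16 hr compound/R5020 treatment at 37C and 5% CO2.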

[14] = qHTS assay to identify small molecule agonists of the estrogen receptor beta (ER-beta) signaling pathway - cell viability counter screen (AID 1259380); further: on the % scale 0 is the no-effect control and ±100 the full control effect; nearly all actives have a fitted effect of over 30% in size
Outline: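 ER-beta-UAS-bla HEK293T cells in medium with 2% charcoal-stripped FBS were preincubated 6 hr at 37C, dosed with compound in DMSO for 16 hr, then after the bla read, CellTiter-Glo was added for 30 min at room temperature; luminescence recorded.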

[15] = activity, negative = inhibition: at 76.8 µM (top of the series) unless noted
Tags describe the fitted curve by direction and shape or compound fluorescence and quenching.

CCOc1cc(OCC)c(C(=O)CCC(=O)O)cc1OCC
Potency [1]: inactive | Potency [2]: inconclusive: 9.52 µM [rising, partial curve] | Potency [3, 15]: inconclusive: 6.74 µM [rising, partial curve]

O=C1CC2CC1C1CCCC21 (stereo unspecified)
Potency [1]: inactive | Potency [4]: inactive

CCCC(=O)C(C)=O
Potency [1]: inactive | Potency [5]: inactive

OCCOCCN1CCN(C(c2ccccc2)c2ccc(Cl)cc2)CC1 (stereo unspecified)
Potency [6]: active: 53.8 µM | Potency [7]: active: 26.9 µM and inconclusive: 15 µM [cytotoxic, partial curve] | Potency [8]: inconclusive: 67.7 µM [falling, single point] | Potency [9]: inconclusive: 1.7 µM [cytotoxic, partial curve, poor fit] | Potency [4]: active: 33.9 µM and inconclusive: 2.66 µM [cytotoxic, full curve] | Potency [5]: inconclusive: 43.1 µM [cytotoxic, partial curve]

COc1cc(C(=O)NC2CCCNC2)cc(OC)c1OC (stereo unspecified)
Potency [1]: inactive | Potency [4]: inconclusive: 33.5 µM [cytotoxic, single point]

C[C@@H]1C[C@H]2[C@@H]3C[C@H](F)C4=CC(=O)C(Cl)=C[C@]4(C)[C@@]3(F)[C@@H](O)C[C@]2(C)[C@@]1(O)C(=O)CO
Potency [6]: inactive | Potency [10]: active: 0.0047 µM | Potency [11]: inconclusive: 5.96 µM [activator, full curve] | activity change, negative = inhibition [12]: inconclusive: -37.4% [at 42.5 µM] | Potency [4]: inconclusive: 9.44 µM [rising, partial curve]

CC(=O)NC1(c2cccc(F)c2)CCN(CC[C@@]2(c3ccc(Cl)c(Cl)c3)CN(c3ccccc3)C(=O)CO2)CC1
Potency [6]: inconclusive: 61.3 µM [cytotoxic, single point] | Potency [7]: active: 21.7 µM | activation [11]: inconclusive: -15.8% | Potency [12]: active: 48.7 µM | Potency [13]: active: 38.7 µM | Potency [4]: active: 21.7 µM | Potency [2]: inconclusive: 39 µM [rising, partial curve] | activity, negative = inhibition [3, 15]: inconclusive: -3.8%

O=C1c2c(O)cccc2Cc2cccc(O)c21
Potency [6]: inconclusive: 67.8 µM [cytotoxic, single point] | Potency [7]: inactive | Potency [9]: inconclusive: 27 µM [cytotoxic, partial curve, poor fit] | Potency [4]: inconclusive: 11.9 µM [rising, single point]

COc1cc(N)c(Cl)cc1C(=O)NC1CCN(CCCOc2ccc(F)cc2)CC1OC (stereo unspecified)
Potency [6]: inconclusive: 26.6 µM [cytotoxic, partial curve, poor fit] | Potency [8]: inconclusive: 29.8 µM | Potency [12]: active: 29.8 µM

CC(O)c1ccccc1 (stereo unspecified)
Potency [1]: inactive | Potency [4]: inactive

Cc1c(F)c(N2CCNC(C)C2)cc2c1c(=O)c(C(=O)O)cn2C1CC1 (stereo unspecified)
activity, negative = inhibition [1]: inconclusive: 3% [at 42.5 µM] | Potency [2]: inconclusive: 19 µM [rising, partial curve] | activity, negative = inhibition [3, 15]: inconclusive: 2.18% [at 35.3 µM]

C#C[C@]1(O)CC[C@H]2[C@@H]3CCC4=Cc5oncc5C[C@]4(C)[C@H]3CC[C@@]21C
Potency [6]: inconclusive: 68.6 µM [cytotoxic, single point] | Potency [7]: active: 48.6 µM and active: 26.6 µM | Potency [11]: inconclusive: 969 nM [activator, full curve] and inconclusive: 1.19 µM [activator, full curve] | Potency [12]: active: 0.0611 µM | Potency [13]: active: 38.6 µM and inconclusive: 33.5 µM [cytotoxic, single point] | Potency [5]: inconclusive: 54.9 µM [cytotoxic] | activity, negative = inhibition ([3]; at 35.3 µM (top of the series)): inconclusive: -23.2% | activity, negative = inhibition ([3]; at 76.8 µM (top of the series)): inconclusive: -25%

O=C(Nc1ccc2c(O)c(N=Nc3ccc(N=Nc4ccc(S(=O)(=O)O)cc4)cc3)c(S(=O)(=O)O)cc2c1)c1ccccc1
Potency [6]: active: 21.7 µM

Cc1cc2c(OCC(CNC(C)(C)C)OC(=O)c3ccccc3)cccc2[nH]1 (stereo unspecified)
Potency [6]: inconclusive: 33.5 µM [cytotoxic, partial curve, poor fit] | Potency [14]: inactive | Potency [4]: inconclusive: 29.8 µM [cytotoxic, single point]

CSc1cnc(C)cn1
Potency [1]: inactive | Potency [2]: inactive

Cc1c(O)cccc1C(=O)N[C@@H](CSc1ccccc1)[C@H](O)CN1C[C@H]2CCCC[C@H]2C[C@H]1C(=O)NC(C)(C)C
Potency [6]: active: 53 µM and active: 23.7 µM | Potency [7]: active: 16.8 µM and active: 23.7 µM | Potency [11]: inconclusive: 42.1 µM [cytotoxic, partial curve, poor fit] | Potency [12]: active: 13.3 µM and active: 21.1 µM | Potency [4]: active: 26.6 µM | Potency [5]: inconclusive: 47.7 µM [cytotoxic, partial curve] and inconclusive: 26.8 µM [cytotoxic, single point] | Potency [3, 15]: inconclusive: 6.74 µM [rising, full curve, poor fit]
